Experimental data from paper PMC4336329 (PLoS ONE, 2015).
Hit rate of the full screen: of about 310,000 compounds, about 14,000 (4.5%) showed an effect of 50% or more. The effect is printed as a negative number. This is one part of the list.

molecular target: human ether-à-go-go-related gene (hERG) potassium channel (human, UniProt Q12809); assay: primary screen, population patch clamp on CHO cells stably expressing hERG
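Further: peak tail current of the secondary pulse compared with the same well before compound.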

human ether-à-go-go-related gene (hERG) potassium channel, sequence (Q12809 whole entry, looked up): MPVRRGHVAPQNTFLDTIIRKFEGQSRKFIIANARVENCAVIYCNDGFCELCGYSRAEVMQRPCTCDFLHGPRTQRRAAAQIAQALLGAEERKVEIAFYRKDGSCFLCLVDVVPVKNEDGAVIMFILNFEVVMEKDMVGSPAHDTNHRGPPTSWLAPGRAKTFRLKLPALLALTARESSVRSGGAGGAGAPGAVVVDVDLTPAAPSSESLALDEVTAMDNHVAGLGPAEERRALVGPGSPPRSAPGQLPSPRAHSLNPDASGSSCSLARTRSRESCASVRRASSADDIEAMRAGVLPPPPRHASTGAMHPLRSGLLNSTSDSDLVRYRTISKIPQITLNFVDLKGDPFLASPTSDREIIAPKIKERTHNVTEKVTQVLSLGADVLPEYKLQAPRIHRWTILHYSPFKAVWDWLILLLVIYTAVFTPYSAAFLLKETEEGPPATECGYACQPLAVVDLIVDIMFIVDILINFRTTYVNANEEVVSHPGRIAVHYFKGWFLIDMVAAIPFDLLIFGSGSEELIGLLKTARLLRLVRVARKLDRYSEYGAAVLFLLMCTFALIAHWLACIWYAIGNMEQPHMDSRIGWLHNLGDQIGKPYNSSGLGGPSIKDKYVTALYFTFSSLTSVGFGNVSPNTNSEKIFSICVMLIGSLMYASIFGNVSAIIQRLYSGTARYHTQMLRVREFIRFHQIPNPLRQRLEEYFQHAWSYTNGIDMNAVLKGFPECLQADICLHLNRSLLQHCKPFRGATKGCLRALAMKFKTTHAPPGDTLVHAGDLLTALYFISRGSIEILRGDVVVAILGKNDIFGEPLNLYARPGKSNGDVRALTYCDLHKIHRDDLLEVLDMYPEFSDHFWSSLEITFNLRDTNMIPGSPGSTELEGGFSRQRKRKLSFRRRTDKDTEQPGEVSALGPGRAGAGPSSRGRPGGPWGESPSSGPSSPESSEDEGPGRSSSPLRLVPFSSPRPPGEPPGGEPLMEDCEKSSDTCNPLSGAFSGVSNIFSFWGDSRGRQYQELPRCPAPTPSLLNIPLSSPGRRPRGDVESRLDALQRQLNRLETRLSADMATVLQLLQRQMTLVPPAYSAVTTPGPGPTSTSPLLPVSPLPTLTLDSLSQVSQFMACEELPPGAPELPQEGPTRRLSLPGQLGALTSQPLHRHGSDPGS

Compound | hERG current change (%, negative = inhibition) at 10uM
O=C(CN(Cc1ccccc1)S(=O)(=O)c1ccc(Cl)cc1)NCC1CCCO1 (centres unmarked) | -9.79%
CN(CC1CCN(CCc2cccc(C(F)(F)F)c2)CC1)C(=O)c1ccccc1 | -68.5%
CC(=O)c1cccc(N(C(=O)c2ccccn2)C(C(=O)NC2CCCCC2)c2cccs2)c1 (centres unmarked) | -0.488%
CC(SCc1ccccc1)C(=O)NN=C1CCN(C)CC1 (centres unmarked) | 1.75%
NS(=O)(=O)c1ccc(CCNC(=O)c2cc([N+](=O)[O-])ccc2N2CCCCC2)cc1 | -37%
O=C(CC1SC(=Nc2ccccc2)N(CCc2ccccn2)C1=O)Nc1ccc(F)cc1 (centres unmarked) | -22.5%
O=C(C1CCCN(CCCc2ccccc2)C1)N1CCCCC1 (centres unmarked) | -38.8%
O=[N+]([O-])c1ccc(N(c2ccccc2)c2ccccc2)cc1 | 4.46%
Cc1ccc(OCCC(=O)NNC(=O)c2cc(C)oc2C)cc1 | 9.57%
O=C(NC1C=CS(=O)(=O)C1)c1sc2ccccc2c1Cl (centres unmarked) | -49.2%
CN(C)C(=O)c1ccc(NC(=O)COC(=O)Cn2cc(C(F)(F)F)ccc2=O)cc1 | -16.8%
COc1cccc(CNC(=O)Cn2ncn3cccc3c2=O)c1OC | 2.53%
COc1ccc(-c2csc(N(CCCN(C)C)C(=O)c3ccc(Br)cc3)n2)cc1.O=C(O)C(=O)O | -44%
Cn1c(=O)c2c(n3cnnc13)-c1ccccc1CC21CCCC1 | -15.6%
Cc1c(Cl)c([N+](=O)[O-])nn1CC(=O)NC1CCCCC1 | 0.666%
O=C(Nc1ccc(S(=O)(=O)N2CCCCCC2)cc1)c1ccc(Br)o1 | -14.5%
CSCCC(NS(=O)(=O)c1ccc(Cl)cc1)C(=O)OCC(=O)NC1CCCCC1 (centres unmarked) | -18.2%
CCc1cccc(CC)c1NC(=O)CN1CCN(S(=O)(=O)c2ccccc2)CC1 | 6.21%
OC(CNCc1ccccc1)(c1ccccc1)c1ccccc1 | -9.7%

Compound | hERG current change (%, negative = inhibition) at 10uM
CCCCOc1ccc(N2C(=O)CC(NCCc3ccc(S(N)(=O)=O)cc3)C2=O)cc1 (centres unmarked) | -24.6%
N=c1ncn(CC(O)CO)c2nc(N3CCOCC3)[nH]c12 (centres unmarked) | 9.85%
Cc1nn(C)cc1CN(C)C(=O)c1cc2nc(-c3ccco3)cc(C(F)(F)F)n2n1 | -21.9%
COc1ccc(CNC(=O)c2coc(=O)c3ccccc23)cc1 | -27.3%
O=C1C=C(O)C(n2cncn2)C(c2ccc3c(c2)OCO3)C1 (centres unmarked) | 17.1%
Cc1ccc(NC(=O)c2ccn(C(=O)Nc3ccccc3)n2)c(C)c1 | 2.97%
O=S(=O)(NCCCCCCNS(=O)(=O)c1c(F)cccc1F)c1ccc2c(c1)OCCO2 | -7.13%
O=C(NCc1ccco1)c1cnc2n(c1=O)CCS2 | -11.4%
Cc1nc2ccc(NC(=S)N3CCN(c4ccccn4)CC3)cc2nc1C | -13.5%
O=C(NC(=O)N1CCN(c2ccccc2F)CC1)c1ccccc1 | -8.06%
OCC12COC(c3ccccc3)N1C(c1ccccc1)OC2 (centres unmarked) | 18.2%
CN1CCN(c2ccc(N)cc2)CC1 | 2.07%
CCC1C(C#N)=C(SCC(N)=O)NC2=C1C(=O)CC(C)(C)C2 (centres unmarked) | 1.07%
S=C(NCCCc1ccccc1)Nc1ccc(Cl)cc1 | 12.3%
Cc1cc(NC(=O)c2cccs2)no1 | 9.7%
COc1cc(/C=C2\SC(=S)N(NS(=O)(=O)c3ccc(C)cc3)C2=O)ccc1O | -18.5%
COc1ccc([C@H]2CC(=O)C=C(c3ccc(OC)nc3)C2)cc1 | 14.2%
CC1(c2nnc(Cc3ccccc3)o2)CC(c2ccc(OC(F)(F)F)cc2)=NO1 (centres unmarked) | -22.5%
COc1ccc(NC(=O)c2ccco2)c(NC(=O)c2ccc([N+](=O)[O-])cc2)c1 | -13.1%

Compound | hERG current change (%, negative = inhibition) at 10uM
COc1ccc(C[C@H]2CN3C(=NC[C@H]3Cc3ccccc3)N2CCNC(=O)CCC2CCCCC2)cc1 | -71.9%
CCOc1cccc(C(=O)NC(=S)Nc2ccc(Cl)cc2C(=O)O)c1 | 35.1%
COc1cccc(-c2cccc(NC(=O)C3CCN(Cc4ccon4)CC3)c2)c1 | -27.8%
CCOC(=O)c1sc(=S)n(-c2ccc(F)c(F)c2)c1N | 10.7%
O=C(NCc1ccc2c(c1)OCO2)c1ccc(CSCc2ccc(Cl)cc2)o1 | 11%
CN(C)c1ccc(CN(C(=O)c2ccccc2Br)C2CCS(=O)(=O)C2)cc1 (centres unmarked) | 8.81%
CC1=CC(c2ccccc2)n2nc(N3C(=O)CCC3=O)nc2N1.O=C(O)CCC(=O)O (centres unmarked) | 2.59%
CC1CCCN(S(=O)(=O)c2ccccc2[N+](=O)[O-])C1 (centres unmarked) | 7.35%
CCC(C)c1ccc(NC(=O)C2CC2)cc1 (centres unmarked) | 5.22%
COc1ccc(CN(C)CC(=O)Nc2ccccc2C(F)(F)F)cc1 | 14.7%
COc1ccc(-c2ccc(Nc3ccc(S(=O)(=O)N4CCCC4)cc3)nn2)cc1OC | 6.55%
O=C(NNS(=O)(=O)c1ccc(F)cc1)C1CCCCC1 | 18.4%
Cc1ccc(S(=O)(=O)N(CC(=O)NCCSCc2ccco2)c2ccc(F)cc2)cc1 | -28.3%
CCOC(=O)CN(c1ccccc1)S(=O)(=O)c1ccc(F)cc1 | 1.93%
CC(=O)c1c(NC(=O)C(C)C)nc(C)nc1-c1ccccc1 | 5.43%
COc1ccc(CCNC(=S)Nc2cccc(C)c2C)cc1 | -12.8%
COc1ccc(/C=C/c2nc(-c3ccccc3)cc(=O)[nH]2)cc1 | -8.55%
O=c1[nH]c(SCc2ccccc2Cl)nc2[nH]ncc12 | 16%
